For this assay, the target named is suilysin (SLY); recombinant rSLY (Streptococcus suis, UniProt Q55996). The experiment in a line: biochemical.

A word on the Kd: it is the concentration at which binding is half-saturated.

As for `O=c1cc(-c2ccc(O)cc2)oc2cc(O)cc(O)c12` [apigenin], the dissociation constant (Kd) is 276 nM.

Values taken from paper PMC8037323, “Apigenin and Ampicillin as Combined Strategy to Treat Severe Streptococcus suis Infection” (Molecules, 2021).
